In patent US12521446B2, “Anti-CEACAM5 antibody drug conjugates” (Bristol-Myers Squibb Company, priority 2024, dated 2026):
Changes are numbered by the printed parent chain.

T1: HCT116-huCEACAM5 (Homo sapiens, UniProt P06731, T210S)
T1 construct: expressed in transfected cells; host or cells: HCT-116
T1 sequence (P06731 35-676 T210S): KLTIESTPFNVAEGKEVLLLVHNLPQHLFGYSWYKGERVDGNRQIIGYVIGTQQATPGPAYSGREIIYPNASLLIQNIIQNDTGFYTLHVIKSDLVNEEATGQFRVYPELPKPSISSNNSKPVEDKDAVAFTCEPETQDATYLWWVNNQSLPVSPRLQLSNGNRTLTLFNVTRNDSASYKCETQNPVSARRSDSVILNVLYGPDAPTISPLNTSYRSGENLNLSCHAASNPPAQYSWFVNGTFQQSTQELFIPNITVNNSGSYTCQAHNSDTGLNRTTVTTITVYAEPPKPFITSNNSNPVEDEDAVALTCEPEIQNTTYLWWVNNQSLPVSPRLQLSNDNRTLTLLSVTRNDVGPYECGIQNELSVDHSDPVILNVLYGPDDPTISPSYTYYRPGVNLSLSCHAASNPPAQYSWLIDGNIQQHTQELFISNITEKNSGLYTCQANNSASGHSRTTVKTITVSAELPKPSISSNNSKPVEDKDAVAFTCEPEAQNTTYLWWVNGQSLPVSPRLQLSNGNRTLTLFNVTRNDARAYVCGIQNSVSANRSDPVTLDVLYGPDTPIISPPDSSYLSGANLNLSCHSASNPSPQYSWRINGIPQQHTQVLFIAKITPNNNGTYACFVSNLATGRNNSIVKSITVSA

T2: full-length human CEACAM5 (Homo sapiens, UniProt P06731, T210S)
T2 construct: The SPR kinetics against full-length human and cyno CEACAM5 were set up as follows
T2 sequence (P06731 35-702 T210S): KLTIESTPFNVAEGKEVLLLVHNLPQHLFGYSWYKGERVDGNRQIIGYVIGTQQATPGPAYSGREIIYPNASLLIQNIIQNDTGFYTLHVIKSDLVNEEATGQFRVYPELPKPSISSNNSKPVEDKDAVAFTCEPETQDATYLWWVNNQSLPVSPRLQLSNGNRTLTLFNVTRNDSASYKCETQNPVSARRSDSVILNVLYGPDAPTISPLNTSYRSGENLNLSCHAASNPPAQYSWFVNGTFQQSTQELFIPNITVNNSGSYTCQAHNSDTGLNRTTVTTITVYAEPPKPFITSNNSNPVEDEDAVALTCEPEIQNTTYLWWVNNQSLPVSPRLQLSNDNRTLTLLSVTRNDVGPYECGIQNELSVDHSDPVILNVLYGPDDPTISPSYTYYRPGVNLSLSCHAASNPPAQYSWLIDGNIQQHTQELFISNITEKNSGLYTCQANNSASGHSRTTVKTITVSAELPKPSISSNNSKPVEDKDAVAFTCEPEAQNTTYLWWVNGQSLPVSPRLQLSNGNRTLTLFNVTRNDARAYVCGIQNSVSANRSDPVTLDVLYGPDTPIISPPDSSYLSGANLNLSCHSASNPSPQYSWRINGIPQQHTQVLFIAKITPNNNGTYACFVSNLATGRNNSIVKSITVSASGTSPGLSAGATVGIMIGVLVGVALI

B1: MBP004: hIgG1.3f progeny of MBN001; VH SEQ ID NO: 67, VL SEQ ID NO: 68 (antibody, V domains shown)
VH: QVQLVESGGGVVQPGRSLRLSCAASGITFSSHGMHWVRQAPGKGLEWVTFISYDGSYKSYVDSVKGRFTISRDNSKNTLYLQMNSLRAEDTAVYYCATGLTGTGAFDIWGQGTMVTVSS
VL: [about 100 residues not shown]
B2: MBP006: hIgG1.3f progeny of MBN001; VH SEQ ID NO: 71, VL SEQ ID NO: 72 (antibody, V domains shown)
VH: B1 VH with K58I, F106N
VL: [about 100 residues not shown]
B3: MBP008: hIgG1.3f progeny of MBN001; VH SEQ ID NO: 75, VL SEQ ID NO: 76 (antibody, V domains shown)
VH: B1 VH with G104N, F106L
VL: [about 100 residues not shown]YTFGQGTKLEIK
B4: MBP011: hIgG1.3f progeny of MBN001; VH SEQ ID NO: 81, VL SEQ ID NO: 82 (antibody, V domains shown)
VH: B1 VH with Y57I
VL: [about 100 residues not shown]YTFGQGTKLEIK

Key:
full-length cyno CEACAM5 = assay: SPR kinetics of progeny antibodies (BIACORE), Example 8; assay type: binding, cynomolgus; settings: hIgG1.3f progeny antibodies, Table 12A; for Kd: read-out: cyCEACAM5 KD
Excerpt: (§1) Antibody genes with single amino acid substitutions and combinations of substitutions were synthesized in IgG expression vectors, transiently transfected into HEK cells, and purified via Protein A. In addition, the framework germline reversions described above were also incorporated into the sequences of the progeny. Purified IgG1.3 CEACAM5 mAb clones were characterized using the BIACORE® for high-throughput SPR-based monoclonal characterization.
(§2) The BIACORE® instrument was primed with 1×HBSP+ running buffer (Cytiva catalog no.BR100671). The CM5 chip (Cytiva catalog no. 29149604) was equilibrated to room temperature, and the BIACORE® instrument was re-primed. A human antibody Fc capture kit (Cytiva catalog no. 29234600) was utilized for this analysis. The human antibody Fc capture reagent was immobilized to both flow cells in all 8 flow channels of the CM5 chip via amine-coupling using the following conditions. Immobilization was performed at a temperature of 25° C. The anti-human Fc capture reagent was diluted to a concentration of 25 μg/mL in acetate pH5 buffer. The chip surface was activated by injecting a mixture of 1-ethyl-3-(-3-dimethylaminopropyl) carbodiimide hydrochloride (EDC) and N-hydroxy succinimide (NHS) for 420 seconds at a rate of 10 microliters per minute (uL/min). A concentration (25 ug/mL) of anti-human Fc capture reagent was then injected on the surface for 420 seconds at a rate of 10 uL/min. The remaining chip surface was blocked by injecting ethanolamine for 420 seconds at a rate of 10 uL/min.
(§3) The SPR kinetics against full-length human and cyno CEACAM5 were set up as follows. The antibody capture was performed by diluting the antibodies to a concentration of 10 nM in HBSP+ buffer. The 10 nM mAbs were captured for 20 seconds at 5 uL/min to achieve capture levels of approximately 100RU. Analyte binding was performed by first making a titration series of full-length human and cyno CEACAM5 that were prepared (from 500 nM-0.23 nM) with three-fold dilutions in HBSP+ buffer. The association rate was 180 seconds at 30 uL/min. The dissociation rate was 600 seconds at 30 uL/min. Regeneration was performed using two injections of 3M magnesium chloride MgCl2 for 30 seconds at 30 uL/min. A data fit was performed using a 1:1 binding model with global Rmax. Rmax reflects the maximal response when all ligand is occupied.

MKN45 = assay: Internalization of progeny antibodies (Incucyte, pHrodo red), Example 9; assay type: cell-based; settings: hIgG1.3 progeny, 25 nM mAb, Table 13A
Protocol: (§4) Antibodies were evaluated for internalization using HCT-116-huCEACAM5, HCT-116-cyCEACAM5, and MKN45 cell lines.
The MKN45 or Ls174T cells were seeded at 10K cells/well (50 uL).
(§5) Cell lines were first analyzed for cell density and viability using a Vi-cell viability machine. The cell lines were diluted to 0.2E6 vc/mL in growth media, and a volume (50 uL) of each was dispensed to a flat-bottom 96-well plate to achieve cell counts of 10K cells/well. Ls174T media included MEM with 10% HI-FBS and 1% pen/strep. MKN45 media included RPMI (ATCC modification) with 10% HI-FBS and 1% pen/strep. HCT-116 media included McCoy's 5a with 10% HI-FBS, 1% pen/strep, and 6 μg/mL Blasticidin. Cells were allowed to adhere to wells of the 96-well plate (Corning Cat. No. 3595) at 37° C./5% CO2 for approximately 4 hours.
(§6) Each test mAb and control mAb was labeled by first pre-mixing the respective antibody with a pHrodo red (Fab conjugated to pH-sensitive; Thermo cat #Z25612) secondary reagent at a 3:1 dye:mAb molar ratio. A series of dilutions were prepared at 2× target concentration in growth media. The final mAb target concentration was 25 nM. A volume (50 uL) of labeled mAb samples were added to the plated cells to achieve a target mAb concentration (25 nM).
(§7) Coated plates contacted with the labeled mAbs were incubated at 37° C. for 30 minutes. Each plate was then read using an Incucyte apparatus, which collected images from the red and phase channels [10× objective; 3 images/well] for a 24-hour duration, with reads of plates every 30 minutes.

HCT116-cyCEACAM5 = assay: as above; assay type: cell-based, cynomolgus; settings: for HCT116-cyCEACAM5 red/phase AUC (internalization): hIgG1.3 progeny, 25 nM mAb, Table 13A
Protocol: as §4, §5, §6, §7
Internalization of negative control mAbs was not observed.

HCT116-huCEACAM5 = target: T1, HCT116-huCEACAM5; assay: as above; assay type: cell-based; settings: hIgG1.3 progeny, 25 nM mAb, Table 13A
Protocol: as §4, §5, §6, §7

[1] = target: T2, full-length human CEACAM5; assay: SPR kinetics of progeny antibodies (BIACORE), Example 8; assay type: binding; settings: hIgG1.3f progeny antibodies, Table 12A
Excerpt: as §1, §2, §3

Row | Molecule | cyCEACAM5 ka (full-length cyno CEACAM5) [M⁻¹ s⁻¹] | cyCEACAM5 kd (full-length cyno CEACAM5) [s⁻¹] | Kd (full-length cyno CEACAM5) [nM] | MKN45 24 hr red/phase AUC (internalization) (MKN45) | internalization to cynoCEACAM-5 expressing cells (HCT116-cyCEACAM5) | HCT116-cyCEACAM5 red/phase AUC (internalization) (HCT116-cyCEACAM5) | HCT116-huCEACAM5 red/phase AUC (internalization) (HCT116-huCEACAM5) | huCEACAM5 ka [1] [M⁻¹ s⁻¹] | huCEACAM5 kd [1] [s⁻¹]
1 | B1 | 44100 | 0.00179 | 40.6 | 3.79 | efficiently internalized | 2.50 | 1.14 | 76000 | 0.00131
2 | B2 | 48600 | 0.000793 | 16.3 | 3.55 | – | 2.40 | 1.14 | 85100 | 0.000513
3 | B3 | 40300 | 0.000784 | 19.5 | 4.15 | – | 2.54 | 1.13 | 89200 | 0.000527
4 | B4 | 42600 | 0.000823 | 19.3 | 3.41 | – | 2.35 | 1.07 | 47100 | 0.000671
